# In PubChem BioAssay AID360 (National Center for Advancing Translational Sciences (NCATS), 2006):
# About 550 (1.1%) of roughly 48,000 compounds were called active. Another 4% or so got no clear call; they are omitted. Cut-off read from the data, not from the text of the source: active = potency below about 15 µM; inconclusive = mostly about 16 µM to 33 µM; inactive = weaker than that. The list shows a part of the results.
# Target: Lysosomal acid glucosylceramidase (Homo sapiens) (UniProt P04062)
# UniProt P04062, sequence (P04062 whole entry, looked up): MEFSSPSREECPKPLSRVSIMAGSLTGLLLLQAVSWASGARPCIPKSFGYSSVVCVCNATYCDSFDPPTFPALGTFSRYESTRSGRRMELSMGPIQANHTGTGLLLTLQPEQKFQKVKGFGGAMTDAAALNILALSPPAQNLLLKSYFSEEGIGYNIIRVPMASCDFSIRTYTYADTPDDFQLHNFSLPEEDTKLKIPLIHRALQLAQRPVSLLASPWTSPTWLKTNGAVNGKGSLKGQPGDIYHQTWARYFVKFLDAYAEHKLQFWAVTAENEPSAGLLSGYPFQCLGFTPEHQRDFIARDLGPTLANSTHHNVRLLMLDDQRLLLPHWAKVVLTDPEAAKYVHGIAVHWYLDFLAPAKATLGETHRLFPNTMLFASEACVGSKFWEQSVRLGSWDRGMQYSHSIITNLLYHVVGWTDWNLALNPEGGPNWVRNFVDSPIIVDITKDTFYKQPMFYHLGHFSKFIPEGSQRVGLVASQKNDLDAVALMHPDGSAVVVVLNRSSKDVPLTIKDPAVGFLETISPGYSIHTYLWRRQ
# Experiment: Glucocerebrosidase;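 note: the screen sought inhibitors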
# Conditions: purified enzyme, resorufin glucoside fluorescence (screen aimed at inhibitors), 20 min; series mostly up to 77 µM
# Procedure, shortened: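 Compounds titrated against 0.2 nM normal enzyme, 30 uM resorufin beta-D-glucopyranoside substrate, citrate/phosphate buffer with taurocholate and tween-20, pH 5.9. Reaction ran 20 min at room temperature; fluorescence (Ex 548/Em 600) gave AC50.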
# Potency is the fitted concentration of half-maximal effect.
row,Compound,Potency
1,Cn1ncc(Br)c1C(=O)Nc1ccc(Cl)cn1,inactive: > 76.9 µM
2,CCCc1ccc(S(=O)(=O)NCCc2ccncc2)cc1,active: 7.13 µM
3,CCn1c(SCC(=O)NCCc2ccc(OC)c(OC)c2)nc2c1c(=O)n(C)c(=O)n2C,inactive: > 76.9 µM
4,COc1ccc(OCC(=O)N2CCN(C(=O)c3cccs3)CC2)cc1,inactive: > 76.9 µM
5,CCOC(=O)NCc1ccc2c(c1)OCO2,inactive: > 76.9 µM
6,O=C(NC1CCCCC1)C1CCCN(c2nnnn2-c2ccccc2)C1 (stereo not drawn),inactive: > 76.9 µM
7,COc1ccc(OC)c(C(c2nnnn2CCc2ccccc2)N2CCN(c3ccccc3)CC2)c1 (stereo not drawn),inactive: > 76.9 µM
8,Cc1cc(OCc2nn[nH]n2)c2c(C)c(Cc3ccccc3)c(=O)oc2c1,inactive
9,Cc1cccc2cc(C(c3nnnn3CC3CCCO3)N3CCOCC3)c(=O)[nH]c12 (stereo not drawn),inactive: > 76.9 µM
10,Cn1nnnc1SCC(=O)Nc1ccc(N2CCOCC2)cc1,inactive: > 76.9 µM
11,O=C(CCN1C(=O)c2ccccc2S1(=O)=O)N1CCN(c2ccccc2)CC1,inactive: > 76.9 µM
12,Cc1nc(-n2nnc3ccccc32)c2c3c(sc2n1)CCCC3,inactive: > 76.9 µM
13,O=C(c1ccco1)N1CCN(C(=O)c2cccc3c2C(=O)N(C2CCCCC2)C3)CC1,inactive: > 76.9 µM
14,CC1CCCCC1NC(=O)CCn1c(=O)oc2ccccc21 (stereo not drawn),inactive: > 76.9 µM
15,CCn1c(SCC(=O)C(C)(C)C)nnc1-c1cccnc1,inactive: > 76.9 µM
16,CCc1cc2c(N[C@@H](C)C(=O)O)ncnc2s1,inactive: > 76.9 µM
17,c1ccc2c(c1)nc1sccn12,inactive: > 76.9 µM
18,CC(C)CNC(=O)CSc1nnc(-c2ccccn2)n1Cc1ccccc1,inactive: > 76.9 µM
19,CCOc1ccccc1C(=O)NC(C)c1ccc2c(c1)OCO2 (stereo not drawn),inactive: > 76.9 µM
20,CCCOc1ccc(C2C(C(=O)c3ccco3)=C(O)C(=O)N2CCN2CCOCC2)cc1OC (stereo not drawn),inactive: > 76.9 µM
21,COc1ccc(NC(=O)CCC2CCCC2)cc1OC,inactive: > 76.9 µM
22,COC(=O)C1=C(C)N(c2cccc3ccccc23)C(=O)C1,inactive: > 76.9 µM
23,COc1ccc(CCN2C(=O)CC(N3CCOCC3)C2=O)cc1 (stereo not drawn),inactive: > 76.9 µM
24,O=C(O)c1ccc(CSCc2c(F)cccc2Cl)o1,inactive: > 76.9 µM

row,Compound,Potency
1,CN(C)/C=N/c1c(C#N)cnn1-c1ncnc2sc(-c3ccccc3)cc12,inactive: > 76.9 µM
2,O=C(O)c1cccc(S(=O)(=O)N2CCOCC2)c1,inactive: > 76.9 µM
3,O=S(=O)(c1ccc2nc(COc3ccccc3)[nH]c2c1)N1CCOCC1,inactive: > 76.9 µM
4,C=CCn1c(NCCc2ccccc2)nc2c1c(=O)n(C)c(=O)n2C,inactive: > 76.9 µM
5,CN(Cc1c(F)cccc1Cl)c1nnnn1-c1ccccc1,inactive: > 76.9 µM
6,Cc1ccc2nc3c(c(N)c2c1)CCN3c1ccccc1,inactive
7,COc1cc2c(cc1NC(=O)CN1CCN(S(=O)(=O)c3ccc(F)cc3)CC1)oc1ccccc12,inactive: > 76.9 µM
8,Cc1cccc(NC(=O)c2cc3ccccc3c(=O)o2)n1,inactive: > 76.9 µM
9,CC(C)Cn1c(-c2ccccc2F)n[nH]c1=S,inactive: > 76.9 µM
10,O=C(C1CCN(S(=O)(=O)c2cnc[nH]2)CC1)N1CCN(Cc2ccc3c(c2)OCO3)CC1,inactive: > 76.9 µM
11,CCCC1=C(C(=O)OCC)C(c2ccc(O)cc2)n2ncnc2N1 (stereo not drawn),inactive: > 76.9 µM
12,CC(C)OCCCNC(=O)c1sc(=S)n(C)c1N,inactive: > 76.9 µM
13,O=C(c1cc2c(s1)CCCC2)N1CCN(Cc2ccc3c(c2)OCO3)CC1,inactive: > 76.9 µM
14,O=C(CC1CCCC1)Nc1nc2ccccc2[nH]1,inactive: > 76.9 µM
15,CCn1c(=O)cc(OCC(=O)N(C)C2CCCCC2)c2ccccc21,inactive: > 76.9 µM
16,COc1cccc(NC(=O)CSc2nnc(-c3cccc(OC(C)C)c3)n2N)c1,inactive: > 76.9 µM
17,COc1ccc(C(=O)CSc2nnc(CNc3nc(-c4ccccc4)cs3)n2C)cc1,inactive
18,COC(=O)c1cc(NC(=O)c2ccoc2C)cc(C(=O)OC)c1,inactive: > 76.9 µM
19,COc1cc(S(=O)(=O)N(Cc2ccc(C)cc2)C2CCCCC2)ccc1-n1cnnn1,inactive: > 76.9 µM
20,COc1cccc2cc(-c3csc(CCn4nc(C)cc4C)n3)c(=O)oc12,inactive: > 76.9 µM
21,CC1CCN(C(=O)CSc2nnc(-c3ccc(S(=O)(=O)N4CCOCC4)cc3)n2C)CC1,inactive: > 76.9 µM
22,COC(=O)C1=[N+]([O-])OC(C(=O)OC)C1c1c[nH]c2ccccc12 (stereo not drawn),inactive: > 76.9 µM
23,CC(C)(C)c1[nH]nc2c1C(c1ccncc1)C(C#N)=C(N)O2 (stereo not drawn),inactive: > 76.9 µM
24,CNC(=O)c1cc2cc(Cl)cc(OC)c2oc1=O,inactive: > 76.9 µM

row,Compound,Potency
1,c1ccc2nc3c(nc2c1)sc1nc2ccccc2n13,inactive: > 76.9 µM
2,COc1ccc(-c2noc(C3CCCN(S(=O)(=O)c4cccc(Cl)c4)C3)n2)cc1OC (stereo not drawn),inactive: > 76.9 µM
3,O=C(Oc1cccc2c(OC(=O)N3CCOCC3)cccc12)N1CCOCC1,inactive: > 76.9 µM
4,COC(=O)CSc1nnc(CNC(=O)Cc2ccccc2)n1C,inactive: > 76.9 µM
5,Cc1c(C(=O)OC2CCCCC2)[nH]c2c1C(=O)CC(C)(C)C2,inactive: > 76.9 µM
6,CC1(C)CC(CCNC(=O)c2ccco2)CC(C)(C)N1,inactive: > 76.9 µM
7,Cc1cc(C(=O)NC2=NCCS2)cs1,inactive: > 76.9 µM
8,COc1ccc(N2C(=O)c3ccc(NC(C)=O)cc3C2=O)cc1,inactive: > 76.9 µM
9,O=C(NCc1cccs1)c1noc2c1CCCC2,inactive: > 76.9 µM
10,CCC(=O)Nc1c2c(nn1-c1ccccc1C)CSC2,inactive: > 76.9 µM
11,CCCCOc1ccc(NC(=O)CSc2nnnn2C)cc1,inactive: > 76.9 µM
12,CCc1nnc(-n2nc(C)cc2-c2ccccc2)n1N,inactive: > 76.9 µM
13,CCOC(=O)N1CCC(N2CCN(S(=O)(=O)c3ccc(NC(C)=O)cc3)CC2)CC1,inactive: > 76.9 µM
14,C=CS(=O)(=O)c1ccc(Oc2ccc(S(=O)(=O)C=C)cc2)cc1,inactive: > 76.9 µM
15,COc1ccc2nc(SCC(=O)NC(C)C)[nH]c2c1,inactive: > 76.9 µM
16,CCC1CCCCN1C(=O)CSc1nnc(-c2cccs2)o1 (stereo not drawn),inactive: > 76.9 µM
17,Cc1n[nH]c(C)c1C(=O)CC1(O)C(=O)N(CCc2ccccc2)c2ccc(Cl)cc21 (stereo not drawn),inactive: > 76.9 µM
18,CCOC(=O)CSc1nc(C2CC2)nc2ccccc12,inactive: > 76.9 µM
19,Cc1nonc1NC(=O)N1CCCC1,inactive: > 76.9 µM
20,CCOC(=O)N1CCN(C(=O)c2nc3ccccc3s2)CC1,inactive: > 76.9 µM
21,O=C(NCc1ccc(Cl)cc1)c1ccc(COCC(F)(F)F)o1,inactive: > 76.9 µM
22,CC1(C)CC(=O)c2cc(OCC(=O)O)ccc2O1,inactive: > 76.9 µM
23,Cc1cc2ccccc2c(=O)n1CC(=O)NCC(=O)N(C)Cc1ccccc1,inactive: > 76.9 µM
24,CC(=O)c1cccc(N=C2C(=O)Nc3ccccc32)c1,inactive: > 76.9 µM

row,Compound,Potency
1,CS(=O)(=O)N1CCN(C(=O)c2cc(-c3ccncc3)nc3ccc(Cl)cc23)CC1,inactive: > 76.9 µM
2,Clc1ccc2c(c1)CNc1c(ncnc1N1CCOCC1)O2,inactive: > 76.9 µM
3,CC(C)CCNC(=O)CN(CC1CCCO1)C(=O)CCC(=O)Nc1ccccn1 (stereo not drawn),inactive: > 76.9 µM
4,COc1cccc(/C(O)=C2/C(=O)C(=O)N(CCN3CCOCC3)C2c2cccnc2)c1 (stereo not drawn),inactive: > 76.9 µM
5,Cc1ccc2nc(C(F)OC(F)(F)F)[nH]c2c1 (stereo not drawn),inactive: > 76.9 µM
6,Cc1ccc(N2CC(C(=O)Nc3nccs3)CC2=O)cc1 (stereo not drawn),inactive: > 76.9 µM
7,C=C(C)n1c(=O)[nH]c2ccccc21,inactive: > 76.9 µM
8,CCc1c(O)nc(SCC(=O)Nc2ccc3c(c2)CCC3)[nH]c1=O,inactive: > 76.9 µM
9,C=CCNC(=O)CSc1ccc(Cl)cc1,inactive: > 76.9 µM
10,CC(=O)c1cccc(NC(=O)CCS(=O)(=O)c2cccc3nonc23)c1,inactive: > 76.9 µM
11,O=C(CCC1N=C2c3ccccc3N=C(SCc3ccc(Cl)cc3)N2C1=O)NCc1ccco1 (stereo not drawn),inactive: > 76.9 µM
12,CC1(C)Oc2ccc(C(=O)N3CCOCC3)cc2N(CC(=O)Nc2ccccc2)C1=O,inactive: > 76.9 µM
13,Cc1noc(C)c1C(=O)NC(C)C1CCCO1 (stereo not drawn),inactive: > 76.9 µM
14,c1ccc(-c2cnnc(N3CCCCC3)n2)cc1,inactive: > 76.9 µM
15,Cc1ccc2[nH]c(=O)c(CN(CC3CCCO3)S(=O)(=O)c3c(C)ccc4nsnc34)cc2c1 (stereo not drawn),inactive: > 76.9 µM
16,CCCCC(NC(C)=O)c1nc2ccccc2n1CCC (stereo not drawn),inactive: > 76.9 µM
17,CCN(CC)S(=O)(=O)c1ccc(S(=O)(=O)Nc2ccc(C(=O)N3CCCC3)cc2)cc1,inactive: > 76.9 µM
18,O=C(NCc1ccncc1)c1c(F)c(F)c(F)c(F)c1F,inactive: > 76.9 µM
19,Cc1cc(N2C(=O)C(O)=C(C(=O)c3ccc(C)o3)C2c2cccs2)no1 (stereo not drawn),inactive: > 76.9 µM
20,CC(C)OC(=O)c1cccc(C(=O)O)n1,inactive: > 76.9 µM
21,Cc1cc(NC(=O)C2CC(c3cccc(Br)c3)=NO2)no1 (stereo not drawn),inactive: > 76.9 µM
